In patent US20240124575A1 (SIMCERE ZAIMING PHARMACEUTICAL, published 2024):

B1: S006-NB146-20 (Fc fusion)
chain: EVQLVESGGGSVQAGGSLRLSCGTPQSWFRLSSYVMNWYRQAPGKRRELVAEITQDDTTNYTPSVKGRFAISRDNANNTVHLQMNSLKPEDTAVYYCNTIQIWGQGTQVTVSS[letters of human IgG1 Fc with changes left out]
notes: also called S006-NB146-20 VHH-Fc
B2: S006-NB146-132 (Fc fusion)
chain: QVQLVESGGGLVQAGGSLRLSCAASGGTFVINAAWYHQAPGKQRELVANISYGGSTNYADRVAGRFAISRDNAKNTVYLQMNSLKPEDTGVYYCRLDPGLALNNRPLYYWGQGTQVTVSS[letters of human IgG1 Fc with changes left out]
B3: S006-NB146-17-H7 (Fc fusion)
chain: EVQLVESGGGLVQPGGSLRLSCAASGSIFTSDDMDYAMGWYRQAPGKQREWVATITSDEDTNYVDSVKGRFTISRDSAKNSAYLQMNSLRAEDTAVYYCFANVRSDRSSLYRNYWGQGTMVTVSS[letters of human IgG1 Fc with changes left out]
notes: also called humanized VHH-Fc
B4: S006-NB146-17 (Fc fusion)
chain: QVQLVESGGGLVQSGGSLRLSCAASGSIFTSDDMDYAMGWYRQASGKQREWVATITSDEDTNYGDSVKGRFTISRDSAKNTAFLQMNTLKPEDTAVYYCFANVRSDRSSLYRNYWGQGTQVTVSS[letters of human IgG1 Fc with changes left out]
notes: also called S006-NB146-17 VHH-Fc
B5: S006-NB146-17-H9 (Fc fusion)
chain: EVQLVESGGGLVQPGGSLRLSCAASGSIFTSDDMDYAMGWYRQAPGKQREWVATITSDEDTNYVDSVKGRFTISRDNAKNSAYLQMNSLKPEDTAVYYCFANVRSDRSSLYRNYWGQGTMVTVSS[letters of human IgG1 Fc with changes left out]
notes: also called humanized VHH-Fc
B6: S006-NB146-40 (Fc fusion)
chain: QVQLVESGGGLVQSGGSLRLSCAASGSIFTSNDMDYAMGWYRQVSGKQREWVATITSDEDTNYGDSVKGRFTISRDSAKNTAYLQMNSLKPEDTAVYYCFANLRSDRSTLYRNYWGQGTQVTVSS[letters of human IgG1 Fc with changes left out]
notes: also called S006-NB146-40 VHH-Fc
B7: S006-NB146-3 (Fc fusion)
chain: EVQVVESGGGLVQSGGSLRLSCAASGAIFTSNAMDYAMGWYRQVSGKQREWVATITSDDDTNYGDSAKGRFTISRDSAKNTAYLQMNSLKPEDTAVYYCFANVRSDRSTLYRNYWGQGTQVTVSS[letters of human IgG1 Fc with changes left out]
notes: also called S006-NB146-3 VHH-Fc
B8: S006-NB146-17-H8 (Fc fusion)
chain: EVQLVESGGGLVQPGGSLRLSCAASGSIFTSNDMDYAMGWYRQAPGKQREWVATITSDEDTNYVDSVKGRFTISRDSAKNSAYLQMNSLRAEDTAVYYCFANVRSDRSSLYRNYWGQGTMVTVSS[letters of human IgG1 Fc with changes left out]
notes: also called humanized VHH-Fc
B9: S006-NB147-225 (Fc fusion)
chain: EVQVVESGGGSVQPGGSLRLSCVASGFTFSNYAMSWVRQTPKKGLEWVAEINSGGDNTYYAYFVKGRFTISRDNAKNTLYLQMNSLKPEDTGTYYCAREEENAGTILQGQGTQVTVSS[letters of human IgG1 Fc with changes left out]
B10: S006-NB146-1 (Fc fusion)
chain: EVQVVESGGGLVQAGGSLTLSCAASGNIENIQVMGWYRQAPGSQRALVAQINLSGLESTNYLDSVKERFTISRDYTKNAVYLRMNRLEPEDTAVYYCNARSYYGQYDYWGQGTQVTVSS[letters of human IgG1 Fc with changes left out]
notes: also called S006-NB146-1 VHH-Fc
B11: S006-NB146-60 (Fc fusion)
chain: EVQLVESGGGLVQAGGSLRLSCVASRSTSSLSLMSWHRQAPGEQRELVASITSGGKANYVDSVKDRFIMTRDDAKNTVYLQMNSLKPEDTAVYYCHAYDRAGTASGFGAAWGQGTQVTVSS[letters of human IgG1 Fc with changes left out]
notes: also called S006-NB146-60 VHH-Fc

What was measured:
[1] = target: T1, monkey CD33 on HEK293T-monkey CD33 cells (monkey); experiment: FACS on HEK293T-monkey CD33 cells
T1 construct: whole, on cells

monkey CD33 protein [2] = target: T2, monkey CD33 protein (monkey); experiment: ELISA, coated monkey CD33, antibody 1 nM
T2 construct: The printed catalogue numbers for murine and monkey CD33 may be interchanged; also called monkey CD33-His protein

monkey CD33 protein [3] = target: T2, monkey CD33 protein; experiment: ELISA, coated monkey CD33, antibody 10 nM
monkey CD33 protein [4] = target: T2, monkey CD33 protein; experiment: ELISA, coated monkey CD33, antibody 0.1 nM
monkey CD33 protein [5] = target: T2, monkey CD33 protein; experiment: ELISA, coated monkey CD33, antibody 100 nM
monkey CD33 protein [6] = target: T2, monkey CD33 protein; experiment: ELISA, coated monkey CD33, antibody 0.01 nM
monkey CD33 protein [7] = target: T2, monkey CD33 protein; experiment: ELISA, coated monkey CD33, antibody 0.001 nM
monkey CD33 protein [8] = target: T2, monkey CD33 protein; experiment: ELISA, coated monkey CD33, antibody 0.0001 nM
human CD33-His = target: T3, human CD33-His (human, UniProt P20138 18-259); experiment: SPR (Biacore), antibody captured on Protein A chip, human CD33-his as analyte
T3 construct: range 18-259; Bought protein; also called human CD33-his protein; hCD33-his; not shown: His tag

monkey CD33 protein [9] = target: T2, monkey CD33 protein; experiment: SPR (Biacore), antibody captured on Protein A chip, monkey CD33 protein as analyte
murine CD33-His protein = target: T4, murine CD33-His protein (murine, UniProt Q63994 18-240, limits assumed); experiment: ELISA on coated murine CD33-his
T4 construct: also called murine CD33 protein
T4 sequence (looked up): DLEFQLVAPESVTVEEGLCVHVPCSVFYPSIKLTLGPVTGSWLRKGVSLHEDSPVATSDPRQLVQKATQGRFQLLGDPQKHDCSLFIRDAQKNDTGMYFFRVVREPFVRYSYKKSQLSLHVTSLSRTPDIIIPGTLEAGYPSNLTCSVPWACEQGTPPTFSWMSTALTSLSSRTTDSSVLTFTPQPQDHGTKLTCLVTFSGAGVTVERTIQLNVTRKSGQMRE

human CD33-V-his = target: T5, human CD33-V-his (human, UniProt P20138 18-144); experiment: ELISA on coated human CD33-V-his
T5 construct: expressed in HEK293E; also called hCD33-V-his; human CD33 protein V-domain; not shown: His tag

human CD33-C2-his = target: T6, human CD33-C2-his (human, UniProt P20138 136-260); experiment: ELISA on coated human CD33-C2-his
T6 construct: expressed in HEK293E; also called hCD33-C2-his; human CD33 protein C2-domain; not shown: His tag

Binder	EC50 [1] [nM]	Max MFI [1] [MFI]	OD450 (monkey CD33 protein [2]) [OD450]	OD450 (monkey CD33 protein [3]) [OD450]	OD450 (monkey CD33 protein [4]) [OD450]	OD450 (monkey CD33 protein [5]) [OD450]	OD450 (monkey CD33 protein [6]) [OD450]	OD450 (monkey CD33 protein [7]) [OD450]	OD450 (monkey CD33 protein [8]) [OD450]	Kd (human CD33-His) [nM]	koff (human CD33-His) [s⁻¹]	kon (human CD33-His) [M⁻¹ s⁻¹]	Kd (monkey CD33 protein [9]) [nM]	koff (monkey CD33 protein [9]) [s⁻¹]	kon (monkey CD33 protein [9]) [M⁻¹ s⁻¹]	binding result (murine CD33-His protein)	binding result (human CD33-V-his)	binding result (human CD33-C2-his)
B1	2.79	2160	2.23	2.92	0.66	3.05	0.11	0.07	0.06	0.917	0.000377	412000	0.548	0.000495	902000	–	–	–
B2	7.61	2130	2.16	2.93	1.09	3.27	0.27	0.14	0.11	–	–	–	1.67	0.000362	216000	–	–	–
B3	–	–	–	–	–	–	–	–	–	–	–	–	–	–	–	no binding (tested: 100 nM)	no binding (tested: 100 nM)	no binding (tested: 100 nM)
B4	4.02	2290	2.05	3.06	0.43	3.28	0.07	0.06	0.05	–	–	–	1.13	0.000128	113000	–	–	–
B5	–	–	–	–	–	–	–	–	–	–	–	–	–	–	–	no binding (tested: 100 nM)	no binding (tested: 100 nM)	no binding (tested: 100 nM)
B6	4.48	2260	2	2.4	0.34	2.78	0.06	0.06	0.05	8.39	1.23e-05	1460	183	0.000256	1390	–	–	–
B7	4.71	2310	1.38	2.33	0.33	3.33	0.11	0.06	0.06	2.52	6.28e-06	2490	15.1	0.000163	10800	–	–	–
B8	–	–	–	–	–	–	–	–	–	–	–	–	–	–	–	no binding (tested: 100 nM)	no binding (tested: 100 nM)	no binding (tested: 100 nM)
B9	–	86	0.05	0.06	0.06	0.07	0.06	0.06	0.05	–	–	–	–	–	–	–	–	–
B10	237	1480	2.15	2.78	0.63	3.22	0.16	0.1	0.1	–	–	–	1.08	0.000268	249000	–	–	–
B11	–	104	0.05	0.06	0.05	0.06	0.05	0.05	0.05	–	–	–	–	–	–	–	–	–
